# “And” between values parts separate entries of the source, which are not always exact repeats. Equal entries are not always repeated. Hit rate of the full screen: of about 280,000 compounds, about 1,100 (0.39%) were called active. This list was built around the results that the source calls inconclusive (neither active nor inactive); the mix of calls is not that of the screen. Calls follow the shape of the dose curve; as a rule, active = well fitted inhibition curve with a large enough effect; inconclusive = small, poorly fitted or top-dose-only effect, or effect the other way; inactive = flat fitted curve, though single readings scatter. Potencies of inconclusive entries are doubtful fits and often do not repeat.
# Biological target: Microtubule-associated protein tau (Homo sapiens) (UniProt P10636)
# Assay: qHTS for Inhibitors of Tau Fibril Formation, Fluorescence Polarization; also: nearly all actives have a fitted effect of over 55% in size
# Settings: K18 P301L tau heparin fibrillization, Alexa594 FP, 6 h; series mostly up to 57.7 µM
# How it was run: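 FP of Alexa 594-tau after heparin (20 uM) induction. Substrate: human K18 P301L, 15 uM unlabeled, 0.24 uM labeled. Buffer 100 mM sodium acetate pH 7. 6 hr, 37 C.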
# % is scaled to controls: 0 for no effect and ±100 for the full control effect; potency is read from the fitted curve at half-maximal effect; tags tell the direction and shape of the fitted curve.
# UniProt P10636, sequence (P10636 whole entry, looked up): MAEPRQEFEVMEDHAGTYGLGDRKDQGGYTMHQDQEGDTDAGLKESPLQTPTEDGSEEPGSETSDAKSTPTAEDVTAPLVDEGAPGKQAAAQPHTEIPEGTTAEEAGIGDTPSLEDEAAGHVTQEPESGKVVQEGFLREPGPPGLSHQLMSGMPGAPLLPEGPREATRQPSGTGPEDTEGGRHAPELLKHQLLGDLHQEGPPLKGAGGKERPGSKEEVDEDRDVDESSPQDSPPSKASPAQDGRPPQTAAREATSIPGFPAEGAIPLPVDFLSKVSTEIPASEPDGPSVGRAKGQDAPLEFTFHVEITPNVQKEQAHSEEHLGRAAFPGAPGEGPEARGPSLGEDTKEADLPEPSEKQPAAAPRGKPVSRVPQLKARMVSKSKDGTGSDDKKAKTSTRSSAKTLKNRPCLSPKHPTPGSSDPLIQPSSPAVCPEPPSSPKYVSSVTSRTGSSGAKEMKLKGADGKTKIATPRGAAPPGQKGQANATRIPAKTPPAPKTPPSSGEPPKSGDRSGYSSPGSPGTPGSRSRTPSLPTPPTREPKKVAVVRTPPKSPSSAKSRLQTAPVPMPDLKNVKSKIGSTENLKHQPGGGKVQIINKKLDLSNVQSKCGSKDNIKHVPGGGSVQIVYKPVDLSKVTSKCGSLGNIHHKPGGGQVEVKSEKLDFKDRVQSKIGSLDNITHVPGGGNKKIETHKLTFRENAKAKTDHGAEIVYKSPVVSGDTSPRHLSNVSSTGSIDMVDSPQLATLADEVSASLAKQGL
SMILES,Potency,"activity, negative = inhibition"
COc1ccc(C(=O)N2CCc3cc(OC)c(OC)cc3C2c2cccc([N+](=O)[O-])c2)cc1OC (stereo not drawn),"inconclusive: 44.7 µM [activator, single point]",–
O=C(CSc1nnc(SCc2ccc(Cl)cc2)s1)N/N=C/c1c[nH]c2ccccc12,"inconclusive: 1.12 µM [activator, partial curve, poor fit]",–
O=C(CSc1ccc2nnc(-c3ccncc3)n2n1)Nc1nccs1,"inconclusive: 44.7 µM [inhibitor, single point]",–
Cc1coc2c1C(=O)C(=O)c1c-2ccc2c1CCCC2(C)C,"inconclusive: 5.62 µM [inhibitor, single point] and inconclusive: 8.91 µM [inhibitor, full curve] and inconclusive: 12.6 µM [inhibitor, partial curve]",–
CC(C)c1ccc(S(=O)(=O)N2CCN(C(=S)NCc3ccco3)CC2)cc1,inactive,–
CCC(C)(C)NC(=S)Nc1ccccc1C,inactive,–
CCOc1cc(C2C(C(=O)OC)=C(C)NC3=C2C(=O)c2ccccc23)c(Br)cc1OC (stereo not drawn),inactive,–
O=C(Nc1ccc2c(c1)OCCO2)c1oc2ccccc2c1NC(=O)C1CC1,"inconclusive: 10 µM [inhibitor, partial curve]",–
CCOC(=O)N1CCC(NC(=O)C(NS(=O)(=O)c2ccc3c(c2)CCN3C(C)=O)C(C)C)CC1 (stereo not drawn),"inconclusive: 1.26 µM [activator, partial curve]",–
Cc1cc(C)c2nc(NC(=O)c3ccc(S(=O)(=O)N4CCCC4)cc3)sc2c1,"inconclusive: 15.8 µM [inhibitor, single point]",–
Cc1ccc(NC(=S)NCc2ccc(S(N)(=O)=O)cc2)cc1Cl,"inconclusive: 10 µM [inhibitor, partial curve, poor fit]",–
CCOC(=O)C1=C(O)c2ccccc2C(=O)/C1=C\c1ccc(C)cc1,"inconclusive: 39.8 µM [inhibitor, single point]",–
Cc1ccc(NC(=O)CSCn2nnc3c(=O)[nH]c(Cc4ccc(F)cc4)nc32)c(C)c1,inactive,–
CCCCNS(=O)(=O)c1ccc2nc(-c3cccnc3)cc(C(=O)NCCC)c2c1,"inconclusive: 44.7 µM [inhibitor, single point]",–
CNCCCC12CCC(c3ccccc31)c1ccccc12,inactive,–
CN1CCN(NS(=O)(=O)c2cccs2)CC1,"inconclusive: 20 µM [inhibitor, partial curve]",–
CCCN(CCC)CCCNC(=O)C1CCC(CNS(=O)(=O)c2cccc3nsnc23)CC1 (stereo not drawn),inactive,–
O=C(Nc1cccc(C(F)(F)F)c1)n1cc(-c2ccccn2)c(N2CCOCC2)n1,"inconclusive: 25.1 µM [inhibitor, single point]",–
NCCCCCc1nnc(SCc2ccc(F)cc2)o1,inactive,–
CCOc1cc(CNc2ccc(CNc3ncn[nH]3)cc2)ccc1OCc1ccccc1,"inconclusive: 7.94 µM [activator, partial curve, poor fit]",–
Cc1[nH]oc(=O)c1N=Nc1ccccc1,"inconclusive: 35.5 µM [inhibitor, single point]",–
C=CCN(CC=C)Cc1c(C)[nH]c2c(C)c(C)ccc2c1=O,"inconclusive: 35.5 µM [inhibitor, partial curve, poor fit]",–
O=C(/C=C/c1ccccc1)c1cccs1,inactive,–

SMILES,Potency,"activity, negative = inhibition"
CCOc1ccc(-c2csc(NNC3=NCCCCC3)n2)cc1,"inconclusive: 28.2 µM [inhibitor, single point]",–
O=c1[nH]c(/C(=N\O)c2ccccc2)no1,"inconclusive: 44.7 µM [inhibitor, single point]",–
CN(Cc1ccco1)C(=O)C(Cc1ccccc1)NS(=O)(=O)c1ccc2c(c1)CCC(=O)N2 (stereo not drawn),inactive,–
Cc1cccc(CNc2ncncc2-c2cccc(NS(C)(=O)=O)c2)c1,inactive,–
CNC(=O)N(O)C1N(/N=C/c2ccccc2O)C(=S)SC1(C)C (stereo not drawn),inactive,–
CCOc1ccc(-c2nc[nH]c2[N+](=O)[O-])cc1,inactive,–
COc1ccc(-c2csc3nc(-c4ccccc4OC)oc(=O)c23)cc1,"inconclusive: 7.94 µM [inhibitor, full curve, poor fit]",–
COC(=O)c1ccc(N2NC(=O)/C(=C/c3ccc(-c4ccc(Cl)c(C(=O)O)c4)o3)C2=O)cc1,"inconclusive: 39.8 µM [inhibitor, single point]",–
C/C=C/c1ccc(OC(C)[C@@H](O)c2ccc(O)c(OC)c2)c(OC)c1 (stereo partly drawn),inactive,–
Cc1cc(C)cc(N=c2c([N+](=O)[O-])nn(-c3ccc4c(c3)OCCO4)n2O)c1,"inconclusive: 10 µM [activator, partial curve, poor fit]",–
COc1cccc(C2NC(c3cccc(OC)c3O)C(C)C(=O)C2C)c1O (stereo not drawn),inactive,–
COC(=O)C1C(O)C(C)C(O)C(C)(O)/C=C\C=C(/C)C(=O)Nc2c(C)c(OC(C)=O)c3c(c2O)C(=O)C(C)=C2OCOC(=C23)/C(C)=C/C(C)(O)C(O)C(C)C1O (stereo not drawn),"inconclusive: 31.6 µM [inhibitor, partial curve]",–
CC(=O)N1CCC(N(C(=O)Nc2ccc(C)c(F)c2)C(C)C)CC1,"inconclusive: 39.8 µM [inhibitor, single point]",–
Cc1ccnc2nc(C(=O)OCCOc3ccc(F)cc3)nn12,inactive,–
CCCCN1C(=O)C(O)=C(C(C)=O)C1c1ccccc1[N+](=O)[O-] (stereo not drawn),inactive,–
O=C1c2ccccc2CC[C@H]1CNCCc1ccc(O)cc1,inactive,–
O=C(/C=C/c1ccc2c(c1)OCO2)c1cccs1,inactive,–
O=C(NCC1CCCO1)c1cc2c(=O)[nH]c3ccccc3c2s1 (stereo not drawn),"inconclusive: 2 µM [inhibitor, partial curve, poor fit]",–
COc1cccc(C2CCCCN2Cc2nc(-c3ccc(C)o3)oc2C)c1 (stereo not drawn),–,inactive: 0.687% [at 2.34 µM]
Cc1cccc(Nc2nc(N)c([N+](=O)[O-])c(NCc3ccco3)n2)c1,"inconclusive: 17.8 µM [inhibitor, partial curve]",–
Cc1ccccc1NC(=O)c1c(NC(=O)C(C)Oc2cccc(Cl)c2)sc2c1CCCC2 (stereo not drawn),"inconclusive: 10 µM [inhibitor, partial curve, poor fit]",–
CCOCCCNC(=O)/C(C#N)=C/c1ccc([N+](=O)[O-])o1,"inconclusive: 12.6 µM [inhibitor, partial curve]",–
Cc1ccc(Nc2nnns2)cc1C,inactive,–

SMILES,Potency,"activity, negative = inhibition"
C=CCn1c(O)c(C2=c3ccccc3=NC2=O)s/c1=N/c1nccs1,"inconclusive: 0.631 µM [activator, full curve, poor fit]",–
COc1ccc(N2CCN(C(CNC(=O)CC(C)C)c3ccc4c(c3)OCO4)CC2)cc1 (stereo not drawn),"inconclusive: 10 µM [activator, single point]",–
O=C(NCc1ccc2c(c1)OCO2)c1cc(-c2cc(Cl)ccc2O)n[nH]1,"inconclusive: 25.1 µM [inhibitor, single point]",–
O=C(COC(=O)c1ccc(Cl)c(S(=O)(=O)N2CCN(c3ccc(F)cc3)CC2)c1)Nc1cccc(Cl)c1,"inconclusive: 12.6 µM [inhibitor, partial curve]",–
O=C(Nc1nc2ccccc2s1)C1c2ccccc2Oc2ccccc21,"inconclusive: 28.2 µM [inhibitor, partial curve]",–
COc1ccc(OCC(=O)Nc2ccc(C(=O)OCc3cc(=O)n4nc(C)sc4n3)cc2)cc1,inactive,–
O=C(Cn1ncc2c(=O)oc3ccccc3c21)N1CCN(C(=O)c2ccco2)CC1,"inconclusive: 28.2 µM [inhibitor, single point]",–
Nc1c(C(=O)N2CCCCC2)sc(=S)n1-c1ccccc1,"inconclusive: 15.8 µM [inhibitor, partial curve]",–
CC1=CSC2=NC(=O)/C(=C\c3cccn3-c3ccccc3)C(=N)N12,inactive,–
CCOC(=O)c1ccc(N2CCN(c3cc(Cl)ccc3C)CC2)c(NC(=O)Nc2cccc(OC)c2)c1,"inconclusive: 39.8 µM [inhibitor, single point]",–
Cc1cc(C)n2nc(C(=O)Nc3ccc(N4CCOCC4)cc3)nc2n1,inactive,–
COc1ccc(N2CC(NC(=O)/C=C\c3ccc(OC)c(OC)c3)CC2=O)cc1 (stereo not drawn),"inconclusive: 39.8 µM [inhibitor, single point]",–
O=C(Nc1cccc(NC(=O)c2ccc3c(c2)OCO3)c1)c1ccccc1,"inconclusive: 39.8 µM [inhibitor, single point]",–
O=C(Nc1ccccc1)N1CCc2ccccc2C1,inactive,–
CCOC(=O)Cn1c(=NC(=O)c2sc3ccccc3c2Cl)sc2cc(S(N)(=O)=O)ccc21,"inconclusive: 20 µM [inhibitor, partial curve, poor fit]",–
CCOc1cccc2sc(N(Cc3cccnc3)C(=O)C3CCCCC3)nc12,inactive,–
COc1ccc(C)cc1NCc1nnc2n1CCCCC2,inactive,–
O=C(Nc1cnccn1)Nc1ccc(Cl)cc1Cl,"inconclusive: 39.8 µM [inhibitor, single point]",–
Cc1cccc(NC(=O)c2ccc(C(=O)Nc3cccc(C)c3C)cc2)c1C,inactive,–
CN1CCN(C(c2ccccc2Cl)c2sc3nc(-c4ccco4)nn3c2O)CC1 (stereo not drawn),"inconclusive: 0.224 µM [inhibitor, partial curve]",–
O=C(O)C1c2ccccc2C(=O)N(Cc2ccc(F)cc2)C1c1ccncc1 (stereo not drawn),"inconclusive: 6.31 µM [inhibitor, single point]",–
N#C/C(=C\c1ccc(Oc2ccc(C(F)(F)F)cc2[N+](=O)[O-])cc1)c1nc2ccccc2[nH]1,"inconclusive: 17.8 µM [inhibitor, partial curve]",–

# — PubChem BioAssay AID1468 (National Center for Advancing Translational Sciences (NCATS), 2008)
